Where “and” joins values, the source holds several entries; their conditions need not be identical. Equal entries are not always repeated. About 25,000 (6.9%) of roughly 360,000 compounds were called active. The shares of active, inactive and inconclusive entries below differ from those in the screen. Calls follow the shape of the dose curve; as a rule, active = well fitted inhibition curve with a large enough effect; inconclusive = small, poorly fitted or top-dose-only effect; inactive = flat fitted curve, though single readings scatter. A potency beside an inconclusive call is a rough fit, not a confirmed value.
biological target: Luciferin 4-monooxygenase (Photinus pyralis) (UniProt P08659); assay: qHTS profiling assay for firefly luciferase inhibitor/activator using purifed enzyme and Km concentrations of substrates (counterscreen for miR-21 project); conditions: purified FLuc, luminescence inhibition; series mostly up to 57.5 µM; also: nearly all actives have a fitted effect of over 55% in size
Outline: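 Purified P. pyralis luciferase (10nM final) with 10uM D-luciferin and 10uM ATP (Km levels) in 50mM Tris acetate pH 7.5, 10mM Mg acetate, 0.01% Tween-20, 0.05% BSA; qHTS 6-point titration, ~60 µM downward; luminescence read.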
Potency is read from the fitted curve at half-maximal effect; tags tell the direction and shape of the fitted curve.

Sequence of UniProt P08659 (P08659 whole entry, looked up): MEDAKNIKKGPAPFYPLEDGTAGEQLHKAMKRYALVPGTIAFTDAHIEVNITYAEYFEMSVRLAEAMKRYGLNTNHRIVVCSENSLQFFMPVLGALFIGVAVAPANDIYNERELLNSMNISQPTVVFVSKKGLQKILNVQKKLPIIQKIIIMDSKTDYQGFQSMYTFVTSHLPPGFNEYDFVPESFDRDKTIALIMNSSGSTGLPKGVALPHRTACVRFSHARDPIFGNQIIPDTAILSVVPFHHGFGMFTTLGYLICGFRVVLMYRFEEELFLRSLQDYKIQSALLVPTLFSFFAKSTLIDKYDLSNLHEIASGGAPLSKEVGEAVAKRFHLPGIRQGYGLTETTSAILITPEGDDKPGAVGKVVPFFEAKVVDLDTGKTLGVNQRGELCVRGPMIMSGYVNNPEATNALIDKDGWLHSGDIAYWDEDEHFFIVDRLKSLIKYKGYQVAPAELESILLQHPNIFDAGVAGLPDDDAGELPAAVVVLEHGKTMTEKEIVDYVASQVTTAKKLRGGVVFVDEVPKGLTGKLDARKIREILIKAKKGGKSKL

| SMILES | Potency |
| --- | --- |
| Cc1cc(S(=O)(=O)Nc2ccc(-c3ccc(N4CCCCCC4)nn3)cc2)c(C)cc1Cl | inconclusive: 9.53 µM [inhibitor, partial curve, poor fit] |
| CCc1ccc2nc(NC(=O)CCCc3cccs3)sc2c1 | inconclusive: 19 µM [inhibitor, partial curve] |
| Cc1ccc(C(=O)COC(=O)C(C)N2C(=O)C3C4CCC(C4)C3C2=O)cc1C (centres undefined) | inconclusive: 2.69 µM [inhibitor, single point] |
| CCn1ccnc1CN(C)Cc1nc(-c2cccc(Cl)c2)no1 | inconclusive: 26.9 µM [inhibitor, partial curve, poor fit] |
| Cc1ccc(NC(=O)O/N=C/c2c(C)nn(C(C)(C)C)c2C)cc1Cl | active: 0.135 µM |
| CCc1ccccc1Nc1cc(C(=O)NC(C)c2ccccc2)c2ccccc2n1 (centres undefined) | inconclusive: 26.9 µM [inhibitor, partial curve, poor fit] |
| CCOCCCN(C(=O)c1snc(C(N)=O)c1N)C(C(=O)NC1CCCC1)c1ccc(O)cc1 (centres undefined) | inactive |
| COc1cc(C2c3c(-c4cc(C)ccc4O)n[nH]c3C(=O)N2CCCO)ccc1OCCC(C)C (centres undefined) | inactive |
| CCOC(=O)c1sc2nc(N3CCOCC3)c3c(c2c1N)CCC3 | inconclusive: 23.9 µM [inhibitor, partial curve, poor fit] |
| CC(C)c1ccc(CNc2ccc(N3CCOCC3)cc2)cc1 | inconclusive: 19 µM [inhibitor, single point] |
| COC(=O)c1ccc(NC(=O)Nc2ccc3c(c2)OCO3)cc1 | active: 6.75 µM |
| CCNC(=O)NCCc1c[nH]c2ccc(Cl)cc12 | inconclusive: 30.1 µM [inhibitor, partial curve, poor fit] |
| COc1ccc(CCNC(=O)c2cccc(S(=O)(=O)N3CCCCCC3)c2)cc1 | inactive |
| [O-][n+]1c2ccccc2c2n1CCCN=C2c1ccc(Cl)cc1 | inconclusive: 26.9 µM [inhibitor, partial curve] |
| COc1ccc(CCCc2nnc(SCC(=O)Nc3ccc(OC)cc3)o2)cc1 | inconclusive: 23.9 µM [inhibitor, partial curve, poor fit] and inconclusive: 37.9 µM [inhibitor, partial curve, poor fit] |
| Cc1nn(-c2ccccc2)c(C)c1/C=N/n1c(-c2ccccc2Br)n[nH]c1=S | inconclusive: 26.9 µM [inhibitor, partial curve, poor fit] |
| CN(/N=C/c1cc(Br)cc(Br)c1O)c1ccccc1 | inconclusive: 19 µM [inhibitor, partial curve] |
| Cc1cc(NC(=O)c2ccccc2F)on1 | inconclusive: 37.9 µM [inhibitor, single point] |
| Cc1cccc(C(=O)Oc2ccc3ccc(O)cc3c2)c1 | active: 23.9 µM |
| Cc1ccc(S(=O)(=O)C(C)C(=O)c2ccc3c(c2)OCCO3)cc1 (centres undefined) | inconclusive: 26.9 µM [inhibitor, single point] |
| CC(=O)c1c(C)[nH]c(C(=O)Nc2cccc(S(=O)(=O)N3CCOCC3)c2)c1C | inactive |
| COc1ccccc1OCCNC(=O)c1cc(F)c(F)cc1Cl | inconclusive: 33.8 µM [inhibitor, partial curve, poor fit] |

| SMILES | Potency |
| --- | --- |
| Cc1ccc(OCC(=O)c2cc(C)n(Cc3ccco3)c2C)c([N+](=O)[O-])n1 | inconclusive: 23.9 µM [inhibitor, single point] |
| COc1ccc(C(=O)NCC(=O)NCC(=O)OCC(=O)c2ccc(C)cc2)cc1 | inconclusive: 37.9 µM [inhibitor, single point] |
| Cc1nc(C(=O)NC2CC2)sc1C1(C)CC(c2ccccc2)=NO1 (centres undefined) | inconclusive: 30.1 µM [inhibitor, partial curve, poor fit] |
| Cc1cccnc1NC(=S)Nc1ccc(Cl)c(Cl)c1 | inconclusive: 9.53 µM [inhibitor, partial curve, poor fit] |
| COc1ccc2c(c1)c1nnc(SCC(=O)N3C(C)CCCC3C)nc1n2C (centres undefined) | inconclusive: 16.9 µM [inhibitor, partial curve] |
| C=CCN=C1NN=C(c2cc(C)n(CC=C)c2C)CS1 | active: 0.338 µM |
| Cc1ccc2nc(Nc3ccccc3)c(/C=N/O)c(=O)n2c1 | inconclusive: 30.1 µM [inhibitor, single point] |
| COc1ccc(O)c(C(=O)c2cnn(-c3ccccc3)c2)c1 | inconclusive: 3.38 µM [inhibitor, partial curve, poor fit] |
| NC(=O)c1ccc(NC(=O)c2cnc3ccccc3n2)cc1 | inconclusive: 21.3 µM [inhibitor, partial curve] |
| C=CCN1C(=NC(=O)CCCC(=O)O)SC2CS(=O)(=O)CC21 (centres undefined) | inactive |
| COc1cc(/C=C/c2[nH]c(=O)[nH]c(=O)c2[N+](=O)[O-])ccc1OCCC(C)C | inconclusive: 9.53 µM [inhibitor, partial curve] |
| O=C(O)c1ccc(Nc2nc3ccccc3nc2NS(=O)(=O)c2cccs2)cc1 | inconclusive: 30.1 µM [inhibitor, partial curve, poor fit] |
| Nn1cnnc1N/N=C\c1ccc(-c2ccccc2[N+](=O)[O-])o1 | inconclusive: 30.1 µM [inhibitor, partial curve, poor fit] |
| Cc1nnc(SCc2nc3sc4c(c3c(=O)[nH]2)CCCC4)[nH]c1=O | inconclusive: 26.9 µM [inhibitor, single point] |
| CCCCCCCc1nc2nc(C)c(Br)c(=O)n2[nH]1 | inconclusive: 26.9 µM [inhibitor, single point] |
| COC(=O)CNC(=O)CNC(=O)c1nn(-c2ccc(OC)c(Cl)c2)c(=O)c2ccccc12 | inactive |
| O=C(O)CCC(=O)N1N=C(c2cccs2)CC1c1cn(-c2ccccc2)nc1-c1ccccc1 (centres undefined) | inconclusive: 37.9 µM [inhibitor, partial curve, poor fit] |
| CC1CCN(C(=O)C2CCCN(S(=O)(=O)c3ccc4c(c3)CC(C)N4C(=O)C3CC3)C2)CC1 (centres undefined) | inactive |
| COc1ccc(OC)c(/C=N/c2c(-c3ccc(O)c(OC)c3)nc3ccccn23)c1 | inconclusive: 21.3 µM [inhibitor, partial curve, poor fit] |
| COc1ccc(OC)c(-n2c(-c3cnccn3)n[nH]c2=S)c1 | inconclusive: 26.9 µM [inhibitor, partial curve, poor fit] |
| C=CCn1c(-c2sc(-c3ccccc3)nc2C)n[nH]c1=S | inconclusive: 37.9 µM [inhibitor, partial curve, poor fit] |
| CCCn1c(=O)c2[nH]c(-c3ccc(OCC(=O)Nc4ccc(C#N)cc4)cc3)nc2n(CCC)c1=O | inconclusive: 1.51 µM [inhibitor, full curve, poor fit] |

| SMILES | Potency |
| --- | --- |
| C#CCOCCOCCOCCNc1nc(N2CCN(C(=O)CCCCCCCCCCNC(=O)[C@H]([C@@H](C)CC)n3cc(CCCCN=C(N)N)nn3)CC2)nc(N2CCN(C(=O)CCCCCCCCCCNC(=O)[C@H](CCCCN)n3cc(C[C@@H](C)CC)nn3)CC2)n1 | inconclusive: 37.9 µM [inhibitor, single point] |
| Cc1ccc(-n2c(C)cc(/C=N/NC(=O)c3ccc(CN4CCOCC4)cc3)c2C)cc1 | active: 15.1 µM |
| CCOc1ccc(OCCC(=O)OCC(=O)Nc2ccc3c(c2)OCCO3)cc1 | inconclusive: 19 µM [inhibitor, partial curve, poor fit] |
| CCOc1ccc(N2C(=O)CC(N)C2=O)cc1 (centres undefined) | inconclusive: 33.8 µM [inhibitor, single point] |
| O=C(NC1=NCCS1)Nc1ccccc1 | active: 9.53 µM |
| CCCN1Cc2cccc(C(=O)Nc3cc(C)cc(C)c3)c2C1=O | inactive |
| CCOc1ccc(OCCSc2nnnn2-c2ccccc2)cc1 | inconclusive: 37.9 µM [inhibitor, partial curve, poor fit] |
| Cc1cccc(NS(=O)(=O)c2ccc(C(=O)NCC(c3ccco3)N3CCCCC3)cc2)c1C (centres undefined) | inactive |
| O=C(CCCc1nc(-c2ccccc2Cl)no1)NC1CCCC1 | inconclusive: 16.9 µM [inhibitor, partial curve] |
| CCOC(=O)C1(Cc2cccc(Cl)c2)CCCN(C(=O)c2cc(C)[nH]n2)C1 (centres undefined) | inactive |
| COc1ccc(/C=N/Nc2ncnc3scc(-c4ccccc4)c23)cc1OC | inconclusive: 23.9 µM [inhibitor, partial curve] |
| O=C(NNc1ccc(Cl)cc1)c1sccc1Cl | inconclusive: 30.1 µM [inhibitor, partial curve, poor fit] |
| COc1ccccc1NC(=O)Nc1ccc(NC(=O)c2ccccc2O)cc1 | inconclusive: 21.3 µM [inhibitor, single point] |
| Cc1cccc(NC(=O)Nc2cccc(F)c2)n1 | active: 13.5 µM |
| Cc1c(C(=O)OCC(=O)N2CCCCC2C)oc2ccccc12 (centres undefined) | inconclusive: 37.9 µM [inhibitor, single point] |
| CCCCOc1ccc2c(c1)C(=O)c1cc(O)ccc1-2 | active: 26.9 µM |
| Cc1cc(-c2csc(N)n2)c(C)n1Cc1ccco1 | inconclusive: 37.9 µM [inhibitor, partial curve, poor fit] |
| O=[N+]([O-])c1ccc(Sc2n[nH]c(-c3ccccc3)n2)nc1 | inconclusive: 19 µM [inhibitor, partial curve] |
| COc1cc(CNC(C)(C)CO)ccc1OCC(=O)NC(C)(C)C | inactive |
| C/C(=N\NC(=O)c1ccccc1)c1ccc(N2CCOCC2)cc1 | inconclusive: 21.3 µM [inhibitor, partial curve, poor fit] |

Source: PubChem BioAssay AID588342 (National Center for Advancing Translational Sciences (NCATS), 2011)
